The supplement of paper PMC11181314
The other results are listed elsewhere or left out. Single values of this set are uncertain.

test system: U2OS; assay: Cell Painting induction (percent of morphological features significantly changed vs DMSO); higher = stronger morphological change; conditions: 10 µM; 20 h; run: confirmation repeat
Procedure: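 Cell Painting assay in U2OS cells: compounds at 10 µM for 20 h, six dyes, 579 robust CellProfiler features as Z-scores vs DMSO median (MAD). Induction is the % of significantly changed features (active if ≥5%); relative cell count is in % of DMSO. The primary run holds DCM compounds preselected for induction ≥10%; the confirmation repeat defines active compounds (370 of 549). Replicate agreement is low, attributed to precipitation.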
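Further: stains mark DNA, RNA and nucleoli, ER, actin, Golgi, plasma membrane and mitochondria, read by high-content imaging, with DMSO controls at matching solvent concentration.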

Compound | Cell Painting induction
CCCCCCC(O)(c1ccc(OC)cc1)C(CN1CCOCC1)c1ccccc1 (stereo unspecified) | active: 48.2%
CC(=O)c1ccc(S(=O)(=O)N2CCC(Oc3ccc(-n4cnnn4)cc3)CC2)cc1 | inactive: 0%
CSc1cccc(NC(=O)c2cc(S(=O)(=O)N3CCCC3)cn2C)c1 | active: 7.4%
CCOc1cc(CN2CCN(Cc3ccc(Cl)cc3)CC2)ccc1OC | active: 26.4%
COc1cc(OC)c(NC(=O)c2nnn(-c3ccccc3)c2C)cc1Cl | inactive: 0%
CCCCCCOc1ccccc1/C=N/NC(=O)COc1ccc(C)c(C)c1 | inactive: 2.6%
CCOC(=O)c1cc(-c2ccccc2)n(CCC(=O)N2CCN(c3ccccc3OC)CC2)c1C | active: 31.4%
CN1CCN(c2ccccc2NC(=O)Cn2ncc3c([nH]c4ccccc43)c2=O)CC1 | active: 37.8%
CCn1cc(C(=O)NCCN(CC(C)C)CC(C)C)c(=O)c2cc(S(=O)(=O)N3CCOCC3)ccc21 | inactive: 1.4%
Cc1ccc(-c2nnc(SCC(=O)N/N=C\c3c(C)nn(-c4ccccc4)c3C)n2-c2ccccc2)cc1 | active: 5.4%
CCc1ccc(-n2c(CSc3nnnn3-c3ccccc3)nc3ccccc3c2=O)cc1 | active: 5.2%
Cc1ccc(-n2ncc(C(=O)Nc3cc(Cl)ccc3C)c2C2CCNCC2)cc1 | active: 43%
COc1ccc(S(=O)(=O)Nc2cc3[nH]c(=O)oc3cc2C)cc1 | active: 9.2%
COc1ccc(-c2cnnc(N/N=C/c3ccc(OC)c(OC)c3)n2)cc1 | active: 11.4%
CCO/C(O)=C1\C(C)=Nc2nc3ccccc3n2C1c1ccc(N(C)C)cc1 (stereo unspecified) | inactive: 1%
CCOc1cc(C2/C(=C(\O)OCCOC)C(C)=Nc3nc4ccccc4n32)ccc1O (stereo unspecified) | inactive: 1.7%
CCOC(=O)c1ccc(NC(=O)c2cnn(-c3ccccc3)c2C2CCNCC2)cc1 | active: 16.8%
CCc1cc(C(=O)N/N=C/c2ccc(OC)cc2)c2ccccc2n1 | active: 65.1%
CCC1CCCCN1CCCNC(=O)CN1C(=O)CSc2ccc(S(=O)(=O)N3CCC(C)CC3)cc21 (stereo unspecified) | active: 23.1%

Compound | Cell Painting induction
CCOc1ccc(NC(=O)C(=O)NCCN2CCN(S(=O)(=O)c3ccc(C)cc3)CC2)cc1 | inactive: 0.2%
Cc1cccc(CN2CCC(CNC(=O)Cn3ncc4c5ccccc5nc-4c3O)CC2)c1 | inactive: 0.5%
CCc1c(C)c(C#N)c2nc3ccccc3n2c1NCCCN(C)C | inactive: 0.3%
O=C(NCCN1CCN(c2ccccc2)CC1)Nc1cccc(Cl)c1 | active: 51.5%
Cc1ccc2c(C)nc(Nc3nc(=O)cc(CSc4nc5ccccc5s4)[nH]3)nc2c1 | inactive: 2.1%
Cc1c(C(=O)NC2CCCc3ccccc32)oc2ccc(S(=O)(=O)N3CCCC3)cc12 (stereo unspecified) | inactive: 4.8%
CCn1c(C)c(C)c2cc(C(=O)NCCCN3CCN(C)CC3)ccc21 | active: 7.3%
CC(C)CCOc1cccc(C2c3c(oc4ccccc4c3=O)C(=O)N2CCCN2CCOCC2)c1 (stereo unspecified) | active: 13.5%
CCOC(=O)N1CCc2c(sc3c2c(=O)n(Cc2ccccc2)c(=O)n3CC(=O)NCC2CCCO2)C1 (stereo unspecified) | active: 11.2%
CC1=C(C(=O)OCC2CCCO2)C(c2coc3ccccc3c2=O)C2=C(O)CC(C)(C)CC2=N1 (stereo unspecified) | inactive: 0.2%
COC(=O)c1ccccc1NC(=O)c1cccc(NC(=O)C(C)C)c1 | active: 7.6%
CCN(Cc1ccccc1)C(=O)Cn1c(=O)n(-c2ccc(OC)cc2OC)c(=O)c2c(C)c(C)sc21 | inactive: 4.5%
CN1CCN(C(=O)/C(=C/c2cn(S(=O)(=O)N(C)C)c3ccccc23)NC(=O)c2ccccc2F)CC1 | active: 14.7%
COc1ccc2c(c1)CCc1c(C(=O)NCc3ccc(Cl)cc3)noc1-2 | active: 12.3%
O=C(Nc1ccc2c(c1)CCCN2C(=O)c1cccs1)c1c(F)cccc1F | active: 30.4%
COc1ccc(N(C(C)C(=O)N/N=C/c2ccc(OCC(C)C)cc2)S(C)(=O)=O)cc1 (stereo unspecified) | active: 8.3%
COC(=O)c1ccc(C(=O)OC)c(NC(=S)N2CCN(c3cc(Cl)ccc3C)CC2)c1 | active: 10.5%
COc1ccc(/C=C2\SC(=S)N(CCC(=O)Nc3cccc(O)c3)C2=O)cc1OC | active: 34.7%
CCOc1ccc(NC(=O)CSc2nc3ccccc3nc2N2CC(C)OC(C)C2)cc1 (stereo unspecified) | active: 10.5%

same assay, conditions: 10 µM; 20 h; run: primary screen (compounds selected for induction >=10%)

Compound | Cell Painting induction [%]
CCCCCCC(O)(c1ccc(OC)cc1)C(CN1CCOCC1)c1ccccc1 (stereo unspecified) | 49.6
CC(=O)c1ccc(S(=O)(=O)N2CCC(Oc3ccc(-n4cnnn4)cc3)CC2)cc1 | 44.4
CSc1cccc(NC(=O)c2cc(S(=O)(=O)N3CCCC3)cn2C)c1 | 17.1
CCOc1cc(CN2CCN(Cc3ccc(Cl)cc3)CC2)ccc1OC | 33.2
COc1cc(OC)c(NC(=O)c2nnn(-c3ccccc3)c2C)cc1Cl | 22.1
CCCCCCOc1ccccc1/C=N/NC(=O)COc1ccc(C)c(C)c1 | 12.8
CCOC(=O)c1cc(-c2ccccc2)n(CCC(=O)N2CCN(c3ccccc3OC)CC2)c1C | 25.7
CN1CCN(c2ccccc2NC(=O)Cn2ncc3c([nH]c4ccccc43)c2=O)CC1 | 37.7
CCn1cc(C(=O)NCCN(CC(C)C)CC(C)C)c(=O)c2cc(S(=O)(=O)N3CCOCC3)ccc21 | 20
Cc1ccc(-c2nnc(SCC(=O)N/N=C\c3c(C)nn(-c4ccccc4)c3C)n2-c2ccccc2)cc1 | 16.9
CCc1ccc(-n2c(CSc3nnnn3-c3ccccc3)nc3ccccc3c2=O)cc1 | 24.2
Cc1ccc(-n2ncc(C(=O)Nc3cc(Cl)ccc3C)c2C2CCNCC2)cc1 | 42.3
COc1ccc(S(=O)(=O)Nc2cc3[nH]c(=O)oc3cc2C)cc1 | 12.1
COc1ccc(-c2cnnc(N/N=C/c3ccc(OC)c(OC)c3)n2)cc1 | 23
CCO/C(O)=C1\C(C)=Nc2nc3ccccc3n2C1c1ccc(N(C)C)cc1 (stereo unspecified) | 50.1
CCOc1cc(C2/C(=C(\O)OCCOC)C(C)=Nc3nc4ccccc4n32)ccc1O (stereo unspecified) | 10.4
CCOC(=O)c1ccc(NC(=O)c2cnn(-c3ccccc3)c2C2CCNCC2)cc1 | 18.7
CCc1cc(C(=O)N/N=C/c2ccc(OC)cc2)c2ccccc2n1 | 49.6
CCC1CCCCN1CCCNC(=O)CN1C(=O)CSc2ccc(S(=O)(=O)N3CCC(C)CC3)cc21 (stereo unspecified) | 44

Compound | Cell Painting induction [%]
CCOc1ccc(NC(=O)C(=O)NCCN2CCN(S(=O)(=O)c3ccc(C)cc3)CC2)cc1 | 30.9
Cc1cccc(CN2CCC(CNC(=O)Cn3ncc4c5ccccc5nc-4c3O)CC2)c1 | 49.9
CCc1c(C)c(C#N)c2nc3ccccc3n2c1NCCCN(C)C | 20.4
O=C(NCCN1CCN(c2ccccc2)CC1)Nc1cccc(Cl)c1 | 43
Cc1ccc2c(C)nc(Nc3nc(=O)cc(CSc4nc5ccccc5s4)[nH]3)nc2c1 | 20.9
Cc1c(C(=O)NC2CCCc3ccccc32)oc2ccc(S(=O)(=O)N3CCCC3)cc12 (stereo unspecified) | 43.2
CCn1c(C)c(C)c2cc(C(=O)NCCCN3CCN(C)CC3)ccc21 | 10.2
CC(C)CCOc1cccc(C2c3c(oc4ccccc4c3=O)C(=O)N2CCCN2CCOCC2)c1 (stereo unspecified) | 22.5
CCOC(=O)N1CCc2c(sc3c2c(=O)n(Cc2ccccc2)c(=O)n3CC(=O)NCC2CCCO2)C1 (stereo unspecified) | 12.4
CC1=C(C(=O)OCC2CCCO2)C(c2coc3ccccc3c2=O)C2=C(O)CC(C)(C)CC2=N1 (stereo unspecified) | 10.4
COC(=O)c1ccccc1NC(=O)c1cccc(NC(=O)C(C)C)c1 | 18.5
CCN(Cc1ccccc1)C(=O)Cn1c(=O)n(-c2ccc(OC)cc2OC)c(=O)c2c(C)c(C)sc21 | 17.6
CN1CCN(C(=O)/C(=C/c2cn(S(=O)(=O)N(C)C)c3ccccc23)NC(=O)c2ccccc2F)CC1 | 11.2
COc1ccc2c(c1)CCc1c(C(=O)NCc3ccc(Cl)cc3)noc1-2 | 36.6
O=C(Nc1ccc2c(c1)CCCN2C(=O)c1cccs1)c1c(F)cccc1F | 22.1
COc1ccc(N(C(C)C(=O)N/N=C/c2ccc(OCC(C)C)cc2)S(C)(=O)=O)cc1 (stereo unspecified) | 13.1
COC(=O)c1ccc(C(=O)OC)c(NC(=S)N2CCN(c3cc(Cl)ccc3C)CC2)c1 | 13.5
COc1ccc(/C=C2\SC(=S)N(CCC(=O)Nc3cccc(O)c3)C2=O)cc1OC | 47.2
CCOc1ccc(NC(=O)CSc2nc3ccccc3nc2N2CC(C)OC(C)C2)cc1 (stereo unspecified) | 10.2
